Structures are written as SMILES. Out of some 50,000 compounds screened, about 800 (1.6%) showed an effect of 50% or more. The list shows a part of the results.

For this assay, the target named is Bcl-2-like protein 10 (Homo sapiens) (UniProt Q9HD36). The assay can be described thus: TR3 peptide-Bcl-B binding displacers, biochemical primary FP assay, phenotype converters (AID 1240).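 Further: 0% = Bcl-B with tracer peptide and DMSO and 100% = tracer peptide lacking Bcl-B.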 The conditions noted are these: GST-Bcl-B / FITC-TR3 peptide fluorescence polarization; stronger effect = higher value; compound at 3.75 mg/L.
UniProt Q9HD36, sequence (Q9HD36 whole entry, looked up): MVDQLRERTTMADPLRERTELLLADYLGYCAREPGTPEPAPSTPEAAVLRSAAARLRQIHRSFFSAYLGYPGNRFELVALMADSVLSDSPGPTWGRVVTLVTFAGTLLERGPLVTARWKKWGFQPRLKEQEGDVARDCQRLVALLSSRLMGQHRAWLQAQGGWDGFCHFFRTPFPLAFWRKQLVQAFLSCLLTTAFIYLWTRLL
With `COc1ccccc1-c1nc(-c2ccc(Br)cc2)no1`, the displacement was found to be 14.7%.

`CCOC(=O)c1cnc2cc(-c3ccc(C)cc3)[nH]n2c1=O`: the displacement was determined as 7.3%.

On to `COc1ccc(Cl)cc1/C=C1\C(=O)NC(=O)N(c2cc(C)cc(C)c2)C1=O`, for which the displacement is -3.4%.

Take `Cc1cc(C)nc(SCC(=O)NN=C2CCCCCC2)n1`: the displacement turned out to be 3.9%.

For the compound `COc1ccc(C2Nc3ccccc3C(=O)N2c2ccc(C)cc2)cc1Cn1nnc2ccccc21` (stereo not drawn), the displacement was -2.1%.

As for `O=c1[nH]c(NCCCO)nc2sc3c(c12)CCCC3`, the displacement is -12.9%.

As to `O=C(COc1ccc(C2CCCCC2)cc1)Nc1cc(C(=O)O)cc(C(=O)O)c1`, the displacement is -17.5%.

On to `CCSc1nnc(NC(=O)C2CC2c2ccccc2)s1` (stereo not drawn), for which the displacement amounted to 8.2%.

`S=c1[nH]nc(NNc2ccccc2)n1Nc1ccccc1`: the displacement was 6.7%.

With `CCOC(=O)c1c(NC(=O)c2ccc(C)c([N+](=O)[O-])c2)sc(C(=O)Nc2ccccc2C(F)(F)F)c1C`, the displacement was -12.9%.

Turning to `Cc1cc(OCC(=O)Nc2cccc(Cl)c2)cc(C)c1Cl`, the displacement was -7.2%.

Consider `COC(=O)C1=C(C)NC(=O)NC1c1ccc(OC(=O)c2cccs2)c(OC)c1` (stereo not drawn), for which the displacement was -4.5%.

Regarding `CCOc1ccccc1/C=N/NC(=O)CSc1nc2ccccc2n1Cc1ccccc1`, the displacement is 6.8%.

Take `COc1cccc(C(=O)Nc2ccc(N3CCN(C(C)=O)CC3)cc2)c1`: the displacement came to 2.2%.

Consider `O=C(N/N=C/c1cccc(O)c1O)c1cccc(Cl)c1`, for which the displacement stood at 5.1%.

Turning to `Cc1nn(C(=O)c2cccnc2)c(C)c1Sc1ccc([N+](=O)[O-])cc1`, the displacement was determined as 8.9%.

As to `COc1ccccc1/C=C/C(=O)NC1CCCCC1`, the displacement is -3.3%.

`Cc1ccc(C(=O)NCc2ccc(S(N)(=O)=O)cc2)cc1C`: the displacement came out at 0.9%.

For `COC(=O)c1cccc(NC(=O)COc2ccc(Cl)cc2)c1`, the displacement was determined as 3.8%.

Consider `O=C1c2cccc3ccc(I)c(c23)C(=O)N1Oc1ccc([N+](=O)[O-])cc1[N+](=O)[O-]`, for which the displacement was determined as 8.5%.

Take `NS(=O)(=O)c1ccc(CNC(=S)Nc2ccccc2)cc1`: the displacement was -11.9%.

`CC(C)c1ccc(-c2cc(C(=O)N3CCCC3)c3ccccc3n2)cc1`: the displacement was -6.5%.

For the compound `O=S(=O)(Nc1cccc(Cl)c1Cl)c1ccc2ccccc2c1`, the displacement was -11.2%.

As to `NC(=NC(=NS(=O)(=O)c1ccccc1)c1ccccc1)SCc1ccccc1`, the displacement came out at 10.7%.

On to `Cc1ccc2[nH]c3nc(N/N=C/c4c(O)ccc5ccccc45)nnc3c2c1`, for which the displacement amounted to 0.1%.

In the case of `COc1cc(NC(=O)c2cc3ccccc3o2)ccc1NC(=O)c1ccco1`, the displacement was determined as 2.5%.

Consider `COc1cc(N(C)C)c([N+](=O)[O-])cc1C(=O)N1CC(C)NC(C)C1` (stereo not drawn), for which the displacement was determined as 7.1%.

With `COc1ccc(/C(O)=C2/C(=O)C(=O)N(CCCCCC(=O)O)C2c2ccc3c(c2)OCO3)cc1` (stereo not drawn), the displacement amounted to 3.9%.

As to `Cc1ccc(-c2ccc(/C=C3/SC(=S)NC3=O)o2)cc1Cl`, the displacement worked out at 26.1%.

On to `Cc1nc2ccccc2n1S(=O)(=O)c1ccc(Cl)cc1Br`, for which the displacement is -2.7%.

With `CCOC(=O)c1cccc(/C=C/N(C)C)c1[N+](=O)[O-]`, the displacement is 5.2%.

Take `Cc1cccc(OCC2=N/C(=C\N(C)C)C(=O)O2)c1`: the displacement turned out to be 30.1%.

As to `O=C(Nc1cccc([N+](=O)[O-])c1)c1sc2ccccc2c1Cl`, the displacement is 17%.

Take `COc1cc(-c2noc(-c3ccc(F)cc3)n2)cc(OC)c1OC`: the displacement stood at 12.1%.

Take `COc1ccc2nc(SCC(=O)NCc3ccccc3)[nH]c2c1`: the displacement came to 4.5%.

In the case of `Cc1cc(/C=N/N2C(=O)c3ccccc3C2=O)c(C)n1-c1ccc(F)cc1`, the displacement is -8.8%.

For `CN1CCN(C(=O)/C(=C/c2cccc3ccccc23)NC(=O)c2ccccc2)CC1`, the displacement turned out to be 4%.

As to `O=C(Cc1ccc(Cl)cc1)Nc1cc(C(=O)O)cc(C(=O)O)c1`, the displacement is -11.6%.

With `COc1ccc(OCCCCOc2ccc(C)cc2C)cc1`, the displacement was 9.6%.

On to `Cc1ccc(S(=O)(=O)Nc2ccc3c(c2)nc(C)n3Cc2ccccc2)cc1`, for which the displacement turned out to be 5.7%.

`COc1ccc(C(=O)Nc2ccc(S(=O)(=O)NC(C)=O)cc2)cc1[N+](=O)[O-]`: the displacement turned out to be 11.6%.

As for `COc1ccc(NC(=O)CN(c2ccc(C)c(Cl)c2)S(C)(=O)=O)c(OC)c1`, the displacement was -0.6%.

`Cn1cc(Cl)c(C(=O)OCC(=O)Nc2ccccc2)n1`: the displacement worked out at 15.4%.

With `Cc1sc(NC(=O)NC2CCCCC2)nc1-c1ccccc1`, the displacement is -12.1%.

Take `COc1cccc(NC2=C(Cl)C(=O)N(c3ccc(Cl)cc3)C2=O)c1`: the displacement is -8.8%.

As for `Cc1ccc(S(=O)(=O)N(Cc2ccccc2)c2ccccc2C(=O)NCc2ccco2)cc1`, the displacement was 11%.

Take `COc1cc(Br)c(C2C3=C(CC(C)(C)CC3=O)OC3=C2C(=O)CC(C)(C)C3)cc1OC`: the displacement was 8.9%.

On to `CCOC(=O)c1cc(-c2ccc(C=C3C(=O)N(C)C(=O)N(C)C3=O)o2)ccc1Cl`, for which the displacement worked out at 111%.

Turning to `CCN(CC)C(=O)C(=O)N/N=C/c1ccc2c(c1)OCO2`, the displacement was -2.9%.

For `COc1ccc(NC(=O)Nc2ccccc2)c(OC)c1`, the displacement came to 6.8%.

For `COc1ccc(/C(C)=N\N2CCN(Cc3ccc(C)cc3)CC2)cc1`, the displacement was -6.7%.

Turning to `O=C(NC(=S)Nc1cccc(NC(=O)c2ccco2)c1)c1ccco1`, the displacement was -2.4%.

In the case of `COc1ccc2nc(NC(=O)c3cc4c(s3)CCCC4)sc2c1`, the displacement was found to be 8.8%.

Consider `O=C(N/N=C/c1cc(Br)cc(Br)c1O)C(Oc1ccccc1)Oc1ccccc1`, for which the displacement turned out to be 3.3%.

For `CCOc1ccc(C(=O)N2CCCc3ccccc32)cc1OCC`, the displacement amounted to 14%.

Take `O=C1NC(=O)N(c2ccccc2)C(=O)/C1=C\c1cccc(Br)c1`: the displacement is -1.7%.

As to `N#C/C(=C/c1ccc(O)c([N+](=O)[O-])c1)C(=O)Nc1cccc(Br)c1`, the displacement was -8.5%.

Take `CCCOc1cccc(C(=O)Nc2sc(C)c(-c3ccc(C)cc3)c2C(=O)OC)c1`: the displacement is 4.5%.

With `C(=N\Nc1nn[nH]n1)/c1ccc(N2CCOCC2)cc1`, the displacement came to 12.3%.

`COc1ccc(CNC(=O)CN(c2c(C)n(C)n(-c3ccccc3)c2=O)S(=O)(=O)c2ccccc2)cc1`: the displacement is -6.2%.

On to `CCOc1ccccc1NC(=O)C(=O)NCCO`, for which the displacement turned out to be 1.8%.

`CC(=O)c1cc(C(=O)Nc2ccccc2C(=O)O)oc1C`: the displacement is -5%.

Turning to `C=C1CC2C(CCC3(C)C2CCC3(O)C(C)=O)C2(C)CCC(=O)C=C12` (stereo not drawn), the displacement is -11.8%.

Turning to `COc1ccc(N(CC(=O)Nc2cccc(C(F)(F)F)c2)S(=O)(=O)c2ccccc2)cc1Cl`, the displacement stood at 12.6%.

As for `O=C(Nc1cccc(Br)c1)c1ccn(C(=O)c2ccc(Cl)cc2)n1`, the displacement was -7%.

For `CC(=O)c1ccc(NC(=S)NC(=O)/C=C/c2ccccc2)cc1`, the displacement was 41.4%.

As to `Fc1c(F)c(F)c(SCCc2ccncc2)c(F)c1F`, the displacement turned out to be 7.3%.

Regarding `COc1ccc(C(=O)N/C(=C\c2ccc(Cl)cc2)C(=O)NCC2CCCO2)cc1` (stereo not drawn), the displacement worked out at 4.4%.
